According to US20250326835A1, “USE OF ANTI-CLAUDIN-1 ANTIBODIES TO TREAT CHOLANGIOCARCINOMA” (Alentis Therapeutics AG, priority 2022, published 2025):

Assays:
[1] = test system: extrahepatic CCA cell line (KKU100); assay: Wound healing (cell migration) assay, KKU100 co-cultured with LX2; format: cell-based, human; conditions: KKU100/LX2 co-culture, 20 μg/mL vs isotype control mAb; p=0.02
Procedure: Next, the effect of anti-CLDN1 mAb H3L3 on cell migration was assessed in a cell-based wound healing assay using an extrahepatic CCA cell line (KKU100), and an intrahepatic CCA cell line (HuCC-A1).
In the wound healing assay, 1.5×10^5 CCA cells were co-cultured in 12 well plates (Corning) with LX2 in a ratio of 1:1 to reproduce the stromal architecture seen in CCA tumors. Co-cultures were treated for 3 days with 20 μg/mL isotype control mAb or with 20 μg/mL anti-CLDN1 mAb H3L3. At day 3, wounds were created in the confluent cell monolayer using a pipette tip. Cells were then washed once with PBS to remove debris and covered with 1% FBS media and treated again with 20 μg/mL isotype control mAb or with 20 μg/mL anti-CLDN1 mAb H3L3. Plates were incubated at 37° C. and wounds were imaged at 0, 24 and 48 h. Relative percent of wound closure was measured using ImageJ. Each experiment was independently repeated at least three times.

[2] = test system: EGI-1 CDX tumor samples; assay: Western blot of key signaling pathways in EGI-1 CDX tumor samples; format: in vivo, mouse; conditions: EGI-1 CDX tumors, Western blot quantification vs control
Procedure: To further investigate the antitumoral effect of CLDN1-targeting mAb, key signaling pathways implicated in CCA development and progression were analyzed in EGI-1 CDX tumor samples (FIGS. 4B-4C).
For protein extraction from CDX tumors, tumor pieces were lysed with lysis buffer (Triton 1%; NaCl 50 mM; Tris 50 mM pH 7.6; MgCl2 2 mM in ddH2O) supplemented with proteinase inhibitors (Roche) and phosphatase inhibitors (Sigma Phosphatase Cocktail number 2 and 3) during 30 min at 4° C. Then the samples were centrifuged at 10000×g for 10 min and the supernatant was collected. Protein quantification was assessed with Thermo Scientific BCA Kit. Gels were prepared following the Biorad TGX gel protocol (BioRad). The gels were transferred using the Biorad trans blot turbo protocol (BioRad) into PVDF membranes. Blocking of the membranes was performed with 5% BSA in TBS-T for 1 h. The membranes were incubated with YAP/TAZ (D24E4) Rabbit mAb (#8418, Cell Signaling Technology), Phospho-YAP (Ser127) (D9W2I) Rabbit mAb (#13008, Cell Signaling Technology), SRC Rabbit mAb (#21085, Cell Signaling Technology), Phospho-SRC (Tyr416) Rabbit mAb (#21015, Cell Signaling Technology), Notch1 (D1E11) XP® Rabbit mAb (#3608, Cell Signaling Technology), Cleaved Notch1 (Val1744) (D3B8) Rabbit mAb (#4147, Cell Signaling Technology) and monoclonal anti-β-Actin antibody produced in mouse (Sigma) in 2.5% BSA in TBS-T with a dilution of 1:1000 overnight at 4° C. The membranes were incubated with Horseradish Peroxidase conjugated secondary antibodies in 2.5% BSA in TBS-T with a dilution of 1:10000 for 1 h at room temperature. Protein immunodetection of the membranes was performed with Clarity ECL Western Blot Substrate (Biorad) in a ChemiDoc MP Imaging System (Biorad). Immunoblot images were analyzed using Image Lab Software v6.1 (Biorad).

[3] = test system: HuCC-A1 (intrahepatic CCA) cell line; assay: HuCC-A1 cell line-derived xenograft (CDX) mouse model, tumor growth; format: in vivo; conditions: HuCC-A1 CDX NRG mice, 25 mg/kg i.p. once per week for 6 weeks vs PBS; p<0.001
Source text: To assess the in vivo anti-tumorigenic activity of an anti-CLDN1 monoclonal (CLDN1 mAb H3L3) antibody in CCA, anti-CLDN1 mAb's effect on tumor growth was investigated in both intrahepatic CCA and extrahepatic CCA cell line-derived xenograft (CDX) mouse models.
Non-Obese Diabetic Rag1^−/−IL2Rgc^−/− (NRG) were subcutaneously injected with 5×10^6 cells of HuCC-A1 (intrahepatic CCA) or EGI-1 (extrahepatic CCA) cell line. Non-Obese Diabetic Prkdc^scidIL2Rg^−/− (NSG) were subcutaneously injected with 5×10^6 cells of the HuCC-T1 (intrahepatic CCA) cell line. When the average tumor volumes reached 40-50 mm^3, mice were randomized into two different groups and treated for 6 weeks with the anti-CLDN1 mAb H3L3 (25 mg/kg i.p. once per week), or with vehicle control (PBS i.p. once per week). Tumor growth was monitored using a digital caliper and tumor volume was calculated using the ½ (length×width^2) formula. (FIG. 2A).

[4] = test system: HuCC-A1 tumor tissue from CDX mice; assay: RNA-seq / gene set enrichment analysis of HuCC-A1 CDX tumor tissue; format: in vivo, mouse; conditions: HuCC-A1 CDX tumors, treated vs control, GSEA
Procedure: To elucidate the molecular mechanisms underlying the anti-tumor effect provided by anti-CLDN1 mAb (H3L3), RNA-sequencing (RNA-seq) was performed on the HuCC-A1 tumor tissue from CDX mice.
Gene Set Enrichment Analysis (GSEA) was used for unbiased pathway analysis using the Molecular Signature Database (MSigDB v. 7.4). For evaluation of anti-CLDN1 mAb H3L3 treatment effects in the HuCC-A1 CDX mouse model, samples derived from anti-CLDN1 H3L3 mAb treated animals (n=5 mice) were compared to respective control samples of the same model (n=5 mice). Results from GSEA were adjusted for the false discovery rate (FDR). An FDR<0.05 was considered statistically significant.
To further understand and confirm the effect of anti-CLDN1 mAb treatment on the identified oncogenic signaling pathways, gene set enrichment analysis (GSEA) was applied for unbiased pathway analysis using the Molecular Signature Database (MSigDB v. 7.4) in the HuCC-A1 CDX mouse tumors. Samples derived from anti-CLDN1 mAb H3L3 treated animals (n=5 mice) were compared to respective control samples of the same model (n=5 mice). Results from GSEA were adjusted for the false discovery rate (FDR). An FDR<0.05 was considered statistically significant.

B1: anti-CLDN1 mAb H3L3: humanized anti-Claudin-1 monoclonal antibody; heavy chain SEQ ID NO: 11, light chain SEQ ID NO: 12 (VH SEQ 13, VL SEQ 14) (antibody)
heavy: QVQLVESGGGVVQPGRSLRLSCLGSGFSFSSYGMNWVRQAPGKGLEWVASISPSGSYFYYADSVKGRFTISRDNSKNTLYLQMTSLRAEDTAIYYCARLPGFNPPFDHWGQGTLVTVSSASTKGPSVFPLAPSSKSTSGGTAALGCLVKDYFPEPVTVSWNSGALTSGVHTFPAVLQSSGLYSLSSVVTVPSSSLGTQTYICNVNHKPSNTKVDKRV[no letters for human IgG1 Fc]
light: DIQMTQSPSSLSASVGDRVTITCKASQNVGGNVDWYQWKPGKAPKLLIYGASNRYTGVPDRFRGSGSGTDFTLTISSLQPEDVATYYCLQYKNNPWTFGGGTKVEIKRTVAAPSVFIFPPSDEQLKSGTASVVCLLNNFYPREAKVQWKVDNALQSGNSQESVTEQDSKDSTYSLSSTLTLSKADYEKHKVYACEVTHQGLSSPVTKSFNRGEC
modifications: H3L3 Heavy Chain; H3L3 Light Chain
CCA cell migration (wound closure) [1]: significantly and specifically decreased CCA cell migration
SRC phosphorylation ([2]; p<0.0001): significant decrease
cleaved Notch1 ([2]; p<0.001): reduction
YAP S127 phosphorylation ([2]; p<0.01): strong increase
tumor growth (tumor volume) [3]: Strong and robust inhibition of tumor growth
expression of downstream target and effector genes of YAP/TAZ, FAK, SRC and Notch1 signaling pathways [4]: markedly downregulated
gene sets associated with cell survival, metabolism and differentiation, including EMT [4]: markedly downregulated
key oncogenic signaling pathways (TNF-α/NF-κB, TGF-β, IL-6/JAK/STAT3, PI3K/Akt/mTOR) [4]: strong suppression
